# Data reported in paper PMC10726135.
# Some of the results follow. At the low end of the ranking the order means little. The protein was read in a cell extract, so binding may be indirect.
# Molecular target: T1, HNF4alpha8 (COS-7 nuclear extract) (UniProt P41235-5)
# T1 sequence: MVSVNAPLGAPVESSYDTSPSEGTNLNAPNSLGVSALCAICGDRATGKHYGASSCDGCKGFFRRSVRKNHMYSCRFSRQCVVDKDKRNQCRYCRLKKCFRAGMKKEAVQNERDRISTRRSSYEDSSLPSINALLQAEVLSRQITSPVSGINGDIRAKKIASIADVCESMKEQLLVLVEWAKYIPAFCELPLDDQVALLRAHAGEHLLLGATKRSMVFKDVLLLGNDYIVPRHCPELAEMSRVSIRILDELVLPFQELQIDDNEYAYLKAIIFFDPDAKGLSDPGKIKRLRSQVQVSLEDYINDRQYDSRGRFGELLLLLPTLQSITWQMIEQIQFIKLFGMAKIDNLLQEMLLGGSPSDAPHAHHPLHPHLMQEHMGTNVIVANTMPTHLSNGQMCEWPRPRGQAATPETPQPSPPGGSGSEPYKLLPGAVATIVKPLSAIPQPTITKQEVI
# Experiment: protein-binding microarray
# Settings: COS-7 nuclear extract on double-stranded Agilent 4x180k PBM; binding buffer, salt, pH and temperature not given; high values mean tight binding; double strand, one strand shown; sequences stand for … in …GCCTAGGGAGATTAGAGTATCGGTCGA
row,Sequence,binding signal (log2 normalized intensity)
1,CACCTACATTCAGGACACTTCTGAAAAAAA,-1.35
2,TAGGCATTGAGGCAGCCAGCGCAGGGGCTT,-1.38
3,CAACCAGAGGTCACTTTTATCACCATCTTG,1.16
4,GGAGTTGCTTGTGTTGGAGCATTAGTTGAC,1.1
5,CTGGGGGCTGGGCGCGGGATCCTCTTTCCT,-1.13
6,GGAAGACAGTCTTGGGCACAAAGTACAAAA,3.14
7,CCCAAGGGATAGGCAGGAGTTAACTAACAA,-1.43
8,AGAGCATCTTGGACTTGGGACTCTGCAGAC,5.66
9,TAACTTAACCACTCAATCAGTACTGAAACA,-1.27
10,GCCCCAGCTCGCTCAGCTGGTTGCCCCTTT,4.47
11,CTGACATGCTGTCACTTCTGCTGCATTCTA,-1.22
12,TAAATCATGGGGAGCATCTATTTTCTATTT,-0.474
13,GGCAGGGTTGGCTGTGGCAATTCCTTAAAA,-1.24
14,AGGCAGAGACTGCCCTGAGCCGCCAGGCGG,-1.33
15,TAATAGCCAGAACTCAGGGTCTGGTTCCAA,-0.604
16,CTGATAAAGGAAGGAATTTACTGCAGTCAG,-1.42
17,GGCAGGTTGCCCTTTCGGTGGGACTAAATT,1.87
18,GTCACGTTCCAGCTGCTTCAGGAGCCCCCT,3.98
19,GTAAGTTAAGTAACTCTCCAAATTCCAGGA,-1.28
20,CCACTGGTGTAAGCTCTGGAGTCCAAAGGT,4.54
21,AGGAGGATCAGGTTTCACTGTTTTGGACAT,1.72
22,TGGATTAGTCCCTTTTCACGCTAAGAAGGA,-0.973
23,CCAGATAAACAGAAGAAAGGGGCTAGGGCA,-1.24
24,GAGCTGAGGAATTTCACCCAGGTATGACAA,-1.34
25,GGCTTGTGTTTAACCTTTGGGTGTGTTCAG,2.96

row,Sequence,binding signal (log2 normalized intensity)
1,GGCCCTGCAGGGCCCCACATTTCAGGAATG,0.309
2,CCTAACTATGGTTGATAAGGAAGTCCATGA,1.58
3,TATGCATTTGTCTCAGGTGGGCAGAGGCCT,-0.0778
4,CCTTAGCTCTAGACATCGACCTTTGTGGGC,4.67
5,AAAGGTCAGGGATAGAACTGGTCCTGTGGG,1
6,CTAGCTGAGTGAGTAGGTTCTCAGCTGACA,-1.26
7,CAGTTTGAAAAACACTGGATAAAGTCCATA,2.95
8,AGCTAGTGCTAAAGGTCATATCCAAAATAT,4.83
9,GGAGACTTCAAACGGGAAGCGAGGCCTCAT,-1.35
10,TAGGCTATCAGACAGCCACACTTTAATGTG,-1.38
11,GATCTTTGTTAGACCCTTATCAGTAGTTCT,1.75
12,TGTAACTAACAACTGACCTTGCAGGCCAGG,1.03
13,GATCCTTATCAGTGTGAGCTACAAGTGAAT,0.424
14,CTGAGAGATTTTTTCTTCCACCTCCCTCCA,1.64
15,TATGTCATAATGTACTCCACTGTGCAGTGG,0.944
16,TTTAAGATTCCAGCTCTCGGATCCTCTGGG,-1.24
17,GCAAGTAATTAAACATTTATTGAGCAGGTT,-0.299
18,ATCTTGGAACAGGTCTCAGGAGTCCAGGGG,1.25
19,ATCATAGTGTTTCTTCTGGTTCTGCAAGGC,0.439
20,GCCAAAAGTCTCAGAAGCTGGGAGACCACT,-1.39
21,TCAGGCAAACAACAGGCATCAACTCTATCA,-1.44
22,CTGCTTAAACCTTTCAAGGGATTCCTATCG,-0.791
23,ATAAGGTGAACATACGTGGCTACCTGTGCA,-0.00248
24,TGAGCTCTGGGGTCCTCTGCTGCCCTCTAG,2.74
25,ACTTCAGGATTCTTTATCTTAGCTTCAGCT,-1.44

row,Sequence,binding signal (log2 normalized intensity)
1,TTTTATCACCACATCTCCCACTGTGGACTC,4.15
2,CCTTTGACCTTCGGCTTCCCCAGAGAAAGA,3.38
3,AAAGCAAAGTCCAACACAGAAGCCTTTTGT,2
4,CCACAAAAGCCAACAGTACAGCCTTTGATC,2.65
5,GGGAGACCAGGAAAGTGAATATCTGGCAAA,-1.36
6,AGGGAAAGTGGGGGGAAAGAATAACGTTAC,-1.46
7,AAAAGGCTAGAGCGCGCTGGAATCTTGATA,-1.41
8,AGATTCTTTCTTCCTTTTGAAAAAGTGAGT,0.567
9,ACTTCTGAGTTTTATCAGCTTCCCTGAGAT,-0.495
10,TGTTCTTGGGGCCCACAGAGTCCAGAGGTC,6.35
11,AAAGGTTAGCTTGGACAGAGTTTGTGGTGT,1.97
12,GGCTGTAGCAACCAAGTACCGCAAACAAGG,-1.3
13,GTCATGTCTCATTGCCCCTTGAGCTAAATA,3.32
14,TGGACAGTGTAAGATAAAAATCAGAGATCA,-1.43
15,ACTTCTTTGTGATGTGTGGATTCAGCTCAC,1.28
16,TTGTTTCCTCAGGGAGGAAGGCAACCACAG,-1.12
17,CCCCAGCATTTTGCAGACCTTGGTCAAAGT,2.99
18,GTTCAGGAGTTGTCTGTCCAGTTCAGGAGT,1.38
19,AAGATGGCTCTCCCGGGGCGGGGGTGACCA,1.04
20,CCTTCAGGGGCATTTGAGTACATGCCTCTC,0.509
21,GTTCCTGAGATAAAAAGAAGCTTGGTATGT,1.15
22,ATGTGGGGCGTGTGTTAGACTTTGGACCTG,9.77
23,ACCTACCCTTTGCCCTGGACATATTTGTCT,2.49
24,CCCTTATCTTTTTAGCAACTGGTATGTTAG,2.06
25,TGGACTAAGAGTAGCGGTTTCTGCTTGGTT,0.164

row,Sequence,binding signal (log2 normalized intensity)
1,TGAGATAGGTACTATTATTAGAGTCCCTTT,1.22
2,GACCTGCGTAGCCCAAAGGTCAGTCTGCAG,4.15
3,AACATGAAACAGTCACAGTTATCAGACAGA,-1.26
4,TGCTCATAGCTACGGGTGACCTTGAGCACT,3.93
5,CTCAGCAAAGTCAGGTCAGTAGCCCAGGGT,-1.1
6,CAGAGTGATCTTTGAAACATAACAGCAACA,1.2
7,TTACCTTGGCAGCCACTGAGGCTCTGTGCC,-1.35
8,GTGGTGCTGTCCAAGGTGCTAGCTCCGACT,-1.35
9,TGATTAGAAGAAAAGAGTTGCTCAAACCAA,-1.05
10,ATTCCAAGGACTGAGATAAGAGAAGGGGTC,1.4
11,CTACAGGTATGCCTTTGAAGAGTACAGCCT,-0.0565
12,AGTGCAGTATGCGCTCTGGGAAACAGCACT,-1.24
13,TGTCGTTTGCTTAGTCTTATCTGAGGTGCC,1.73
14,AGGGGACTTCGCTGGAGGTGTTAAAGTGCC,0.389
15,GAGGTATGCCAGGAATGCTGAGGAGGGCCT,-1.29
16,AGCCACCTGTCACTCAATGCAGCAGCATTG,-1.47
17,GGCCTGGGGGGAGACAACTGCAACAGGAGG,-1.38
18,GTGAAATGGGGGAAGGGCTGGAGACGCAGG,-1.4
19,GCCTAAGCAGGGCTAGACTTTAACCCCCTT,6.24
20,CTTTATCCTACAAGGGAGATAAACTTTATC,0.672
21,GTTCACTGGGGAGACTCTCTCTCCTCTCCA,-1.4
22,CTACTTAAAAAGAAATAGCCTGAAAATGTT,-1.29
23,ACCCTGTGATCATATAAGGAACAAAGTCAG,0.557
24,CTCCCACCCTGCAATTCCCCTGGGCCCACG,2.21
25,CCCTTTGCTGATTACCTCAACTCCCACATC,1.54

row,Sequence,binding signal (log2 normalized intensity)
1,GTCCGAAGGTCAGCTGACCAACAGAGAAGG,2.28
2,CACTGCTGGGTTTCTTCCCTAATGGACATC,1.77
3,TAGGTCTTTTGGTGAGTCTTTGCCCCTGGA,3.51
4,GAGAAAAAGTCAACACTTAGGGTGGATACT,-0.996
5,ATGGCAAGAGATAAGGGTGGCCATCCATCC,-1.32
6,CAGTCTAGAATCTGCAGCCCCTTTTGGAAT,2.01
7,AAGCAGGAGCATGGGGGATGGGGCCTGGGA,-1.45
8,GCACACCTGGATCTTCCAGGCCTCCAGCTC,-1.41
9,ACAGCGTTTTCCCATTCATGACATTGATTT,1.47
10,CAAGGGTGGATATTGGGAGGCCCATTGTGC,-0.142
11,TTCACATAGCCACCAGGGCCTCTGAGATAA,-1.32
12,GACACTTTGAGAGAGGGACATGCTTGGCCT,-1.4
13,GAGACTGCCCTGAGCCGCCAGGCGGGTTCT,-1.15
14,AGTCTTTATTGGTACGTTCCAATATTCTGG,1.28
15,CTTTTTTTCCCCCTCACTGAATATGTTCGG,2.47
16,CCAGCCCTTCACCAGAGCCGTCTGGTAAAT,-1.35
17,GAGGAACAGGTGGGGGTAAACATAGCAGAA,-1.14
18,GGCAATTTCCCTGGTCGACCTCCCCGTCAC,2.77
19,CCCTGAGTAGTTCTTCTGGTTAGTTTTTCA,1.66
20,CCAGCTAGAAGCAGTGGGACAAAGGTCACA,6.82
21,TTCACTCCCCTGACAGCATGTTCGGCTGAG,1.91
22,CCCTGCAATTTGATTTGTATGATCTTGGGT,1.73
23,TGGTATTTAAGGTCACATGCCTAGGTAAGC,1.43
24,ACCGCCATAACTCAGCGGGAGGCAAGATAA,-1.36
25,CACCTCTTCCAGAGTTCAGAGGAACTTTAT,1.21

row,Sequence,binding signal (log2 normalized intensity)
1,GACCTTAGTACTCTGCCATGTGCTATTCTG,3.11
2,CTGGGACTTCAAAGCGCAGCGCGGGGCTCA,-1.33
3,CGTAAGGGTCTGACCTGGCTGCTTGCCATG,-0.486
4,TCTGAAGGGAGGGCCAAGCCCTCCATCCAA,-1.33
5,TAGAGGAGCCAGAGGGGCCAGGAACGTCAC,-1.16
6,GTGTTCCCACAGTGCCCTCTATTGGCTGTT,2.39
7,GGAATTGGGAGGACAGATAAGGTCTGCTGA,-1.26
8,ATGGGGGAGCCACTGCAGCTTTCTGAGTAG,-1.31
9,TAGCTTGGTTTTTCTGGGACCAAGGGTCAG,4.54
10,AACAGGAGCAAATATCGCTTGTCTTACGGA,-1.27
11,TCATTCTCTGTTGCATGGTTGACATACTTC,1.23
12,GAGTGCAGGTGGGAGGGGTGGACTTTGGCT,6.22
13,ACTGGGGTGGAGATGCCGTCGGCACACACG,-1.29
14,TTCACTTTCTCTTATAGCTCAACCCCCAAA,5.33
15,GCTGGTTTGCCATTTGGAGAGAGTTTGGCC,1.76
16,TAGGAATTCCAAGAAGGCAGACTCAAGATA,-1.33
17,AAAAGTAGCTGTTGGAATTTGGTCACAGAA,2.96
18,TTGCCCTTAAGCAGCATGTAGTTTAGTTGG,2.38
19,GGGGGACTTCAAAAGCCGGGGAAAGGGAAA,-1.28
20,CTGGGTTCCAAAAGGCACATAGATTCCCAG,-1.28
